Laboratory results from patent publication US11198713B2, “Agents modulating beta-catenin functions and methods thereof” (FOG PHARMACEUTICALS, INC., priority 2017, dated 2021).
Not every detail of the peptide structures is certain; ends, links or a residue may be inferred. Numbered stars: 1 amine (or outer) side, 2 acyl side, 3 side chain; on linkers, the order of the positions; unused ones are H or OH. Bridge positions count the residues as written; N and C are the ends. Square brackets hold non-standard residues; d marks the D form. Peptide text beside a SMILES is read from it. * marks the point of attachment. X4 = O=C([C@]1(N[*:1])CCN(CC=[*:3])C1)[*:2]; R8 = C=CCCCCCC[C@@](C)(N)C(=O)O; Lauroyl = CCCCCCCCCCCC(=O)*

System: TCF/LEF Luciferase reporter HEK293 cell lines
Experiment: TCF/LEF reporter assay
Format: cell-based
Conditions: 10 μM, Table 2

| SMILES | TCF/LEF Reporter Inhibition at 10 μM [%] |
| --- | --- |
| CCCCCCCCCCCC(=O)N1CCC[C@H]1C(=O)N[C@@H](C)C(=O)N[C@]1(C)CCCCCCC=CCN2CC[C@@](C(=O)N[C@@H](CCCNC(=N)N)C(=O)N[C@H](C(=O)N[C@@H](Cc3c[nH]c4ccccc34)C(N)=O)C(C)C)(C2)NC(=O)[C@H](C(C)C)NC(=O)[C@H](Cc2c[nH]cn2)NC(=O)[C@H](C)NC(=O)[C@H](CC(=O)O)NC(=O)[C@H](CC(C)C)NC(=O)[C@H]([C@@H](C)CC)NC1=O [FP0317a, Dodec-P-A-R8-I-L-D-A-H-V-MB-R-V-W-NH2] (Lauroyl-PA[R8]ILDAHV[X4]RVW-NH2; staple 3-10) | 34 |
| CCCCCCCCCC(=O)N1CCC[C@H]1C(=O)N[C@@H](C)C(=O)N[C@]1(C)CCCCCCC=CCOC(=O)N2CC[C@@](C(=O)N[C@@H](CCCNC(=N)N)C(=O)N[C@H](C(=O)N[C@@H](Cc3c[nH]c4ccccc34)C(N)=O)C(C)C)(C2)NC(=O)[C@H](C(C)C)NC(=O)[C@H](Cc2c[nH]cn2)NC(=O)[C@H](C)NC(=O)[C@H](CC(=O)O)NC(=O)[C@H](CC(C)C)NC(=O)[C@H]([C@@H](C)CC)NC1=O [FP0318c, Dec-P-A-R8-I-L-D-A-H-V-MB-R-V-W-NH2] | 48 |
| CCCC(=O)N1CCC[C@H]1C(=O)N[C@@H](C)C(=O)N[C@]1(C)CCCCCCC=CCOC(=O)N2CC[C@@](C(=O)N[C@@H](CCCNC(=N)N)C(=O)N[C@H](C(=O)N[C@@H](Cc3c[nH]c4ccccc34)C(N)=O)C(C)C)(C2)NC(=O)[C@H](C(C)C)NC(=O)[C@H](Cc2c[nH]cn2)NC(=O)[C@H](C)NC(=O)[C@H](CC(=O)O)NC(=O)[C@H](CC(C)C)NC(=O)[C@H]([C@@H](C)CC)NC1=O [FP0321c, Bua-P-A-R8-I-L-D-A-H-V-MB-R-V-W-NH2] | 59 |
| CC[C@H](C)[C@@H]1NC(=O)[C@](C)(NC(=O)[C@H](C)NC(=O)[C@@H]2CCCN2C(C)=O)CCCCCCC=CCOC(=O)N2CC[C@@](C(=O)N[C@@H](CCCNC(=N)N)C(=O)N[C@H](C(=O)N[C@@H](Cc3c[nH]c4ccccc34)C(N)=O)C(C)C)(C2)NC(=O)[C@H](C(C)C)NC(=O)[C@H](Cc2c[nH]cn2)NC(=O)[C@H](C)NC(=O)[C@H](CC(=O)O)NC(=O)[C@H](C)NC1=O [FP0327c, Ac-P-A-R8-I-A-D-A-H-V-MB-R-V-W-NH2] | 0 |
| CC[C@H](C)[C@@H]1NC(=O)[C@H](Cc2c[nH]cn2)NC(=O)[C@H](C)NC(=O)[C@H](Cc2ccc(F)cc2)NC(=O)[C@H](CC(C)C)NC(=O)[C@H]([C@@H](C)CC)NC(=O)[C@](C)(NC(=O)[C@H](C)NC(C)=O)CN(C)C(=O)OCC=CCCCCCC[C@@](C)(C(=O)N[C@@H](Cc2ccc(O)cc2)C(=O)N[C@H](C(=O)N[C@@H](Cc2c[nH]c3ccccc23)C(N)=O)C(C)C)NC1=O [FP0336c, Ac-A-ME-I-L-4FF-A-H-I-S8-Y-V-W-NH2] | 43 |
| CC[C@H](C)[C@@H]1NC(=O)[C@H](Cc2c[nH]cn2)NC(=O)[C@H](C)NC(=O)[C@H](Cc2ccc(F)cc2)NC(=O)[C@H](CC(C)C)NC(=O)[C@H]([C@@H](C)CC)NC(=O)[C@](C)(NC(=O)[C@H](C)NC(C)=O)CCCCCCC=CCOC(=O)N2CC[C@@](C(=O)N[C@@H](CCCNC(=N)N)C(=O)N[C@H](C(=O)N[C@@H](Cc3c[nH]c4ccccc34)C(N)=O)C(C)C)(C2)NC1=O [FP0344c, Ac-A-R8-I-L-4FF-A-H-I-MB-R-V-W-NH2] | 0 |
| CC[C@H](C)[C@@H]1NC(=O)[C@H](Cc2c[nH]cn2)NC(=O)[C@H](C)NC(=O)[C@H](Cc2ccc(F)cc2)NC(=O)[C@H](CC(C)C)NC(=O)[C@H]([C@@H](C)CC)NC(=O)C2(NC(=O)[C@H](C)NC(C)=O)CN(C2)C(=O)OCC=CCCCCCC[C@@](C)(C(=O)N[C@@H](Cc2ccc(O)cc2)C(=O)N[C@H](C(=O)N[C@@H](Cc2c[nH]c3ccccc23)C(N)=O)C(C)C)NC1=O [FP0345c, Ac-A-MA-I-L-4FF-A-H-I-S8-Y-V-W-NH2] | 43 |
